{"source": "PubChem BioAssay AID1030", "about": "(National Center for Advancing Translational Sciences (NCATS), 2008)", "note": "Screen size: about 220,000 compounds; about 16,000 (7.3%) were called active. The inconclusive results got no clear call from the source; some entries with a clear call stand among them for comparison. The call rests on the fitted dose curve; in most records, active means well fitted inhibition curve with a large enough effect (not every such curve was filed as active); inconclusive means small, poorly fitted or top-dose-only effect, or another doubt; inactive means no such curve, though single readings can be large or run the other way. No potency is given beside an inconclusive call; the fits are too rough. Potency means the concentration at half of the fitted maximal effect; tags describe the fitted curve by direction and shape.", "data": [{"biological_target": "Aldehyde dehydrogenase 1A1 (Homo sapiens) (UniProt P00352)", "sequence (P00352 whole entry, looked up)": "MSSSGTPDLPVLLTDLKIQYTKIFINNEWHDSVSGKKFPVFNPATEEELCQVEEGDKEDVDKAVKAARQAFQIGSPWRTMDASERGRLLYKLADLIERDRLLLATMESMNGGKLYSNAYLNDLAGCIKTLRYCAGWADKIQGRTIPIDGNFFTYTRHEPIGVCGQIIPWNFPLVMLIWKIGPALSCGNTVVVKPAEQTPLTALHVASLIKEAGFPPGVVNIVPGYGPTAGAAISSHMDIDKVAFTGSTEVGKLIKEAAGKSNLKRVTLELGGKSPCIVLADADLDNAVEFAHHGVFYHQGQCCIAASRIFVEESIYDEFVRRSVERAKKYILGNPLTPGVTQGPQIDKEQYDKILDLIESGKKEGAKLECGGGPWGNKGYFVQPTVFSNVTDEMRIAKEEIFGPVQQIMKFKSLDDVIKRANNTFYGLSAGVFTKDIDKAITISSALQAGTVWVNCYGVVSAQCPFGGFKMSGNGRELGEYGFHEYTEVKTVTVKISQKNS", "test": "qHTS Assay for Inhibitors of Aldehyde Dehydrogenase 1 (ALDH1A1);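 on activity, negative = inhibition: plate controls were no enzyme wells and a reference inhibitor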", "details": "Purified ALDH1A1, NADH fluorescence, propionaldehyde substrate; series mostly up to 75.3 µM; activity, negative = inhibition: at the top concentration", "values": [{"compound": "Cc1ccc(CN(C)C(=O)c2cc(COc3ccc(F)cc3Cl)on2)o1", "Potency": "active: 7.08 µM"}, {"compound": "COc1ccc(CNC(=O)CN(C)S(=O)(=O)c2ccccc2)cc1", "activity, negative = inhibition": "inactive: -13%"}, {"compound": "Clc1ccc(Cl)c2sc(N3CCCC3)nc12", "Potency": "active: 10 µM"}, {"compound": "CC(=O)N1CCN(c2nc3cc4c(cc3nc2NS(=O)(=O)c2ccccc2)OCCO4)CC1", "Potency": "inconclusive [inhibitor, partial curve]"}, {"compound": "CCOc1ccc(S(=O)(=O)N2CCN(C(=O)c3sccc3C)CC2)cc1", "activity, negative = inhibition": "inactive: -8.28%"}, {"compound": "OCCn1c(-c2ccc(F)cc2)csc1=Nc1ccccc1", "activity, negative = inhibition": "inactive: -14.2%"}, {"compound": "Cc1cc(N2CC(C)OC(C)C2)n2cc(-c3ccccc3)nc2n1", "note": "(stereo not given)", "Potency": "inconclusive [inhibitor, partial curve]"}, {"compound": "Oc1c(Br)cc(Br)cc1/C=N/NC(=S)N[C@H]1CC2C=CC1C2", "note": "(stereo not given in full)", "Potency": "active: 12.6 µM"}, {"compound": "Cc1cccc(C)c1OCC(=O)Nc1cccc(NC(=O)c2ccco2)c1", "Potency": "inconclusive [inhibitor, single point]"}, {"compound": "COc1ccc(C(=O)N(Cc2ccco2)Cc2cccs2)c(O)c1", "Potency": "active: 12.6 µM"}, {"compound": "Oc1ccc(/C=N/N2CCOCC2)c(O)c1O", "Potency": "active: 7.08 µM"}, {"compound": "COc1ccc(S(=O)(=O)Nc2cc(C(=O)NC(C)C)ccc2N2CCOCC2)cc1", "Potency": "active: 0.794 µM"}, {"compound": "O=C1c2ccccc2S(=O)(=O)N1CC(O)COc1ccc(Cl)cc1", "note": "(stereo not given)", "Potency": "inconclusive [inhibitor, single point]"}, {"compound": "CN1CCN(C(=O)c2cc(-c3cccc(Cl)c3)on2)CC1", "Potency": "active: 4.47 µM"}, {"compound": "Cc1ccc(S(=O)(=O)CC(=O)Nc2ccc(S(=O)(=O)Nc3onc(C)c3C)cc2)cc1", "activity, negative = inhibition": "inactive: 5.13%"}, {"compound": "CCc1c(C)sc(NC(=S)NC(C)C2CCCO2)c1C(=O)OC", "note": "(stereo not given)", "Potency": "inconclusive [inhibitor, single point]"}, {"compound": "Cc1ccc(-c2noc(CCC(=O)NCCCN3CCN(c4cccc(Cl)c4)CC3)n2)cc1", "Potency": "inconclusive [inhibitor, single point]"}, {"compound": "CC(C)c1ccc(NC(=S)Nc2ccc(OC(F)(F)F)cc2)cc1", "Potency": "inconclusive [inhibitor, partial curve]"}, {"compound": "O=C(NCc1cccs1)Nc1cccs1", "Potency": "active: 17.8 µM"}, {"compound": "C[C@H](C(=O)C=[N+]=[N-])N1C(=O)c2ccccc2C1=O", "Potency": "inconclusive [inhibitor, single point]"}, {"compound": "CCN(C(=O)CCS(=O)(=O)c1ccc(Br)cc1)c1ccc2c(c1)OCO2", "Potency": "active: 15.8 µM"}, {"compound": "N#CCCn1cc(/C=N/NC(N)=S)c(-c2ccc(-c3ccccc3)cc2)n1", "activity, negative = inhibition": "inactive: -11.6%"}, {"compound": "COC(=O)CSc1cc([N+](=O)[O-])ccc1NC(=O)OC", "Potency": "inconclusive [inhibitor, single point]"}, {"compound": "Cc1ccccc1NC(=O)COC(=O)CCc1ccccc1", "activity, negative = inhibition": "inactive: -1.22%"}, {"compound": "COc1ccc(Cn2nnnc2CN(CCCN2CCOCC2)Cc2cc3cc(OC)ccc3[nH]c2=O)cc1", "Potency": "inconclusive [inhibitor, single point]"}, {"compound": "Cc1cccc(CCNS(=O)(=O)c2ccc3c(c2)oc(=O)n3C)c1", "Potency": "inconclusive [inhibitor, single point]"}, {"compound": "COc1ccccc1C1C2CCCCC2(O)CCN1CC(=O)Nc1ccccc1", "note": "(stereo not given)", "Potency": "inconclusive [inhibitor, single point]"}, {"compound": "Cc1onc(-c2ccccc2Cl)c1C(=O)Nc1cccc(-c2cn3cccnc3n2)c1", "Potency": "inconclusive [inhibitor, partial curve]"}, {"compound": "Cn1c2c(c(=O)n(C)c1=O)C(c1ccc(Cl)cc1)C(C#N)=C(N)O2", "note": "(stereo not given)", "Potency": "inconclusive [inhibitor, partial curve]"}, {"compound": "N#CC1=C(Nc2ccccc2)SC=C(c2ccc(Cl)c(Cl)c2)N=C1N1CCOCC1", "Potency": "inconclusive [inhibitor, partial curve]"}, {"compound": "CCCCCC1CC(=O)C=C(C)C1C(=O)OC", "note": "(stereo not given)", "activity, negative = inhibition": "inactive: -8.69%"}, {"compound": "CCc1nc2ccccc2c(=O)n1NC(=O)c1c(O)c2cccc3c2n(c1=O)CCC3", "activity, negative = inhibition": "inactive: 15.6%"}, {"compound": "CSc1ccccc1NC(=O)CN(C)CC(=O)Nc1ccccc1F", "activity, negative = inhibition": "inactive: 9.84%"}, {"compound": "OCc1cn(-c2ccccc2)nc1-c1cc2ccccc2o1", "Potency": "inconclusive [inhibitor, single point]"}, {"compound": "Cc1c(NC(=O)Nc2ccccc2)cccc1[N+](=O)[O-]", "activity, negative = inhibition": "inactive: -4.7%"}, {"compound": "CC1=CC(C)(C)n2c(O)c(N=NC(N)=S)c3cccc1c32", "Potency": "inconclusive [inhibitor, single point]"}, {"compound": "O=C(N/N=C\\c1ccc(Br)o1)C1COc2ccccc2O1", "note": "(stereo not given)", "Potency": "inconclusive [inhibitor, single point]"}, {"compound": "COc1ccccc1N1CCN(CC(=O)c2c(C)n(C)c3ccccc23)CC1", "Potency": "inconclusive [inhibitor, single point]"}, {"compound": "CCOc1cc(C2C(C(=O)c3ccc(C)o3)=C(O)C(=O)N2CCc2ccccc2)ccc1O", "note": "(stereo not given)", "activity, negative = inhibition": "inactive: -3.59%"}, {"compound": "O=C(NC(=S)NCCC1=CCCCC1)c1ccco1", "Potency": "inconclusive [inhibitor, single point]"}, {"compound": "O=c1[nH]c2cc3c(cc2cc1CN(CCO)S(=O)(=O)c1ccccc1Cl)OCCO3", "Potency": "inconclusive [inhibitor, single point]"}, {"compound": "CC1(C)CC(=O)C(C(C2=C(O)CC(C)(C)CC2=O)c2cccc(O)c2)C(=O)C1", "note": "(stereo not given)", "Potency": "active: 14.1 µM"}, {"compound": "O=C1c2ccccc2C(=O)N1Cc1ccccn1", "Potency": "inconclusive [inhibitor, single point]"}, {"compound": "CC(/C=N/NC(=O)Cn1cnc2c1c(=O)n(C)c(=O)n2C)=C\\c1ccco1", "Potency": "active: 22.4 µM"}, {"compound": "Brc1ccc(N=C(c2ccccc2)c2ccncc2)cc1", "activity, negative = inhibition": "inactive: 1.81%"}, {"compound": "CCSc1nc2ccccc2c(=O)n1Cc1ccc(F)cc1", "activity, negative = inhibition": "inactive: 2.99%"}, {"compound": "N#CC(C(=O)CCN1C(=O)C2CC=CCC2C1=O)c1nc2ccccc2[nH]1", "note": "(stereo not given)", "Potency": "inconclusive [inhibitor, single point]"}, {"compound": "Oc1ccc2cc(Br)ccc2c1CN1CCCC1", "activity, negative = inhibition": "inactive: -2.94%"}, {"compound": "CCOC(=O)C1(CC2CC2)CCN(S(=O)(=O)/C=C/c2ccccc2)CC1", "Potency": "inconclusive [inhibitor, single point]"}, {"compound": "CC(C)(C)c1ccc(NC(=O)COC(=O)CCN2C(=O)c3cccc([N+](=O)[O-])c3C2=O)cc1", "Potency": "inconclusive [inhibitor, partial curve]"}, {"compound": "C=C(Cl)COc1ccc2c(CC)cc(=O)oc2c1", "Potency": "inconclusive [inhibitor, partial curve]"}, {"compound": "Cc1ccc2nc(-c3ccccc3O)c(Nc3ccc4c(c3)OCCO4)n2c1", "Potency": "inconclusive [inhibitor, single point]"}, {"compound": "Nc1nc(SCc2ccc(Br)cc2)[nH]c(=O)c1-c1ccccc1", "Potency": "inconclusive [inhibitor, full curve]"}, {"compound": "Cc1ccc2c(c1)C(=O)C(=O)N2CCOc1ccccc1", "Potency": "active: 1.26 µM"}, {"compound": "Cc1ccc(CNc2oc(-c3ccco3)nc2S(=O)(=O)c2ccccc2)cc1", "Potency": "active: 28.2 µM"}, {"compound": "O=C1SCCC1NC(=O)C(c1ccccc1)c1ccccc1", "note": "(stereo not given)", "Potency": "inconclusive [inhibitor, single point]"}, {"compound": "S=C(Nc1ccccc1Cl)N(CCN1CCCCC1)Cc1ccco1", "Potency": "inconclusive [inhibitor, single point]"}, {"compound": "c1ccc(-c2ccccc2OCCCN2CCCC2)cc1", "Potency": "inconclusive [inhibitor, single point]"}, {"compound": "Cc1sc2nc(CN3CCCCC3)nc(Nc3ccc4c(c3)OCCO4)c2c1C", "activity, negative = inhibition": "inactive: -6.96%"}, {"compound": "Clc1ccc(-c2cc3ccccc3nc2N2CCOCC2)cc1", "Potency": "inconclusive [inhibitor, single point]"}, {"compound": "CN1CCN(S(=O)(=O)c2ccc(NC(=O)COc3ccccc3Cl)cc2)CC1", "Potency": "active: 3.16 µM"}, {"compound": "C=CCNC(=O)CCc1nnc(C2(c3ccc(Cl)cc3)CCC2)o1", "Potency": "inconclusive [inhibitor, partial curve, poor fit]"}, {"compound": "CC(=O)c1ccccc1[N+](=O)[O-]", "activity, negative = inhibition": "inactive: -5.99%"}, {"compound": "O=C1CCC(/C=C/c2ccccc2)=NN1Cc1ccc(F)cc1", "activity, negative = inhibition": "inactive: 5.83%"}, {"compound": "C=CCn1c(SCC#N)nc2c(c1=O)C(C)(C)Cc1ccccc1-2", "Potency": "inconclusive [inhibitor, single point]"}, {"compound": "COc1ccccc1NC(=S)NNC(=O)c1nn(C)c(C)c1Br", "Potency": "inconclusive [inhibitor, single point]"}, {"compound": "CC1(C)CC(=O)C/C(=N\\NC(=O)C2CC2c2ccccc2)C1", "note": "(stereo not given)", "Potency": "active: 31.6 µM"}, {"compound": "CCOCCCNC(=O)/C(C#N)=C/c1ccc(-c2ccc(S(=O)(=O)N3CCOCC3)cc2)o1", "Potency": "inconclusive [inhibitor, single point]"}, {"compound": "Cc1ccc(CNC(=O)C2CCN(S(=O)(=O)c3ccc4c(c3)OCCCO4)CC2)cc1", "Potency": "inconclusive [inhibitor, single point]"}, {"compound": "CNC(=O)NC(=O)C(C)OC(=O)c1c2c(nc3ccccc13)/C(=C/c1cccs1)CC2", "note": "(stereo not given)", "Potency": "inconclusive [inhibitor, single point]"}, {"compound": "NC(=O)C1CCN(c2cc(N3CCOCC3)ccc2[N+](=O)[O-])CC1", "Potency": "inconclusive [inhibitor, single point]"}, {"compound": "COc1cc(C(=O)O/N=C2\\C=CC(=O)C=C2C)cc(OC)c1OC", "activity, negative = inhibition": "inactive: -8.69%"}, {"compound": "Cn1nnnc1SCc1cccc2ccccc12", "Potency": "inconclusive [inhibitor, partial curve, poor fit]"}, {"compound": "O=C(O)C(c1ccccc1)N1C(=O)/C(=C/c2cccs2)SC1=S", "note": "(stereo not given)", "Potency": "inconclusive [inhibitor, single point]"}, {"compound": "COc1ccc(Cn2c(=O)cc(C)[nH]c2=S)cc1", "activity, negative = inhibition": "inactive: -0.953%"}]}]}
